Data from PubChem BioAssay AID624296 (National Center for Advancing Translational Sciences (NCATS), 2012).
Among all 350,000 compounds or so, about 9,900 (2.8%) were called active. Inconclusive results, whose numbers are uncertain, are shown with a selection of clear calls. Calls come from the whole dose curve; as a rule, active = well fitted activation curve with a large enough effect; inconclusive = small, poorly fitted or top-dose-only effect; inactive = no such curve, though single readings can be large or run the other way. Potencies of inconclusive entries are left out as doubtful fits.

assay: A quantitative high throughput screen for small molecules that induce DNA re-replication in MCF 10a normal breast cells.; note: nearly all actives have a fitted effect of over 50% in size; for activity, positive = re-replication: % of control where 0% means no effect; conditions: MCF 10A DNA re-replication, Hoechst nuclear intensity, 48 h; activity, positive = re-replication: at 46.1 µM (top of the series)
Potency is the fitted concentration of half-maximal effect; tags give direction and shape of the fitted curve.

SMILES	Potency	activity, positive = re-replication
O=c1cc2c(c(-c3ccccc3)n1Cc1ccccc1)[C@@H](CCO)NC2	inconclusive [activator, partial curve, poor fit]	
Cc1ccc(-c2noc(CN(C(=O)c3cccc(Br)c3)C(C)C)n2)cc1		inactive: 30%
Fc1ccc(N2CCN(c3ncnc4c3nnn4Cc3ccccc3Cl)CC2)cc1	inconclusive [activator, partial curve, poor fit]	
Cc1cccc2nc(CSc3nc4ccccc4o3)cn12		inactive: 22.9%
CCN(CC)c1ccc(NS(=O)(=O)c2cn(C)c(=O)n(C)c2=O)c(C)c1		inactive: -2.45%
Cc1cc(C)n(-c2nc3ccccc3c(=O)n2OCc2ccc(Cl)cc2)n1		inactive: 5.09%
CCOC(=O)c1c(C)[nH]c(C(=O)COC(=O)C23CC4CC(CC(Cl)(C4)C2)C3)c1C	inconclusive [activator, partial curve, poor fit]	
O=C(COc1cccc(-n2cnnn2)c1)Nc1ccc([N+](=O)[O-])cc1		inactive: 14.4%
Cc1cc(C)nc(SC2=CS(=O)(=O)c3ccccc32)n1	active: 16.4 µM	
CN1CCN(c2ccc(NC(=O)C(C)(c3ccccc3)c3ccccc3)cc2)CC1	inconclusive [activator, full curve]	
COc1cccc(CNC(=O)C2CCN(S(=O)(=O)c3ccc(Br)s3)CC2)c1		inactive: 7.82%
COc1ccc(Nc2nc(C(C)(C)C)nc3c2nnn3Cc2ccccc2Cl)cc1OC	inconclusive [activator, partial curve, poor fit]	
CCOC(=O)c1c(NC(=S)Nc2ccc(F)cc2)sc2c1CCC2	inconclusive [activator, single point]	
N#CCCn1nc(-c2ccc([N+](=O)[O-])cc2)cc1Nc1ccccc1NC(=O)C(F)(F)F		inactive: 18.8%
O=C(Nc1nccs1)c1ccc(S(=O)(=O)NCC2CCCCC2)cc1	inconclusive [activator, single point]	
COc1ccccc1NC(=O)c1sc2nc(-c3ccco3)ccc2c1N	active: 14.6 µM	
N#Cc1c(N)nc2c3c(sc(=N)c2c1N)NC(=O)CC3c1ccccc1Cl (centres undefined)	inconclusive [activator, single point]	
O=C(NC1CCCCC1)N(Cc1ccccc1)Cc1ccco1	inconclusive [activator, partial curve, poor fit]	
CSC1(SC2=NCCN2)SC2(NCCN2)S1	active: 3.66 µM	
Cc1cccc(-c2nnc(SCC(=O)C(C)(C)C)n2C)c1	inconclusive [activator, partial curve, poor fit]	
COC(=O)c1cc(OC)c(OC)cc1-n1cnc2cc(OC)c(OC)cc2c1=O	inconclusive [activator, single point]	
COc1cc2[nH]c(=O)n(CCCCCC(=O)NCCCN3CCCC3=O)c(=O)c2cc1OC	inconclusive [activator, partial curve, poor fit]	
COc1ccc(S(=O)(=O)Nc2ccccc2-c2nc3ccccc3[nH]c2=O)cc1	inconclusive [activator, single point]	
CN(Cc1ccc(Cl)cc1)C(=O)c1ccc2ccccc2n1	inconclusive [activator, full curve, poor fit]	
Cc1ccc(C)c(N2CCN(C(=O)c3ccc4nsnc4c3)CC2)c1	inconclusive [activator, single point]	

SMILES	Potency	activity, positive = re-replication
COc1ccc(CC(C)N2CCN(c3cccc(C(F)(F)F)c3)CC2)cc1OC (centres undefined)		inactive: 3.7%
COC(=O)Cn1cnc2c(nnn2-c2ccc(F)cc2)c1=O		inactive: 1.42%
CCN(c1ccccc1)S(=O)(=O)c1cc(C(=O)NCC(c2ccc(OC)cc2)N(C)C)ccc1C (centres undefined)	inconclusive [activator, single point]	
C/C=C/COC(=O)c1[nH]c2c(c1C)C(=O)CC(c1ccco1)C2 (centres undefined)	inconclusive [activator, full curve, poor fit]	
CCC(C)c1ccc(O)c(NC(=S)NC(=O)c2cccnc2)c1 (centres undefined)	inconclusive [activator, partial curve, poor fit]	
CSCCC(NC(=O)c1ccccc1Cl)C(=O)N1CCN(C(c2ccccc2)c2ccccc2)CC1 (centres undefined)		inactive: 7.53%
O=C(c1cc(F)c(F)cc1Cl)N1CCN(c2ccc([N+](=O)[O-])c3ncccc23)CC1		inactive: 0.321%
Cc1ccc(F)c([C@H]2C3C=CCC(c4ccccc4)C3C(=O)N2Cc2ccccc2)c1 (some centres undefined)	inconclusive [activator, single point]	
COc1cc(/C=N/N(CCO)C2=NS(=O)(=O)c3ccccc32)cc(OC)c1OC		inactive: 13.9%
Cc1cccc(NC(=O)Cn2cc(C(=O)C3CC3)c3ccccc32)c1		inactive: 1.56%
CC1CC(=O)Nc2ccccc2N1S(=O)(=O)c1cccc(Cl)c1 (centres undefined)		inactive: 11.4%
CCOC(=O)C1=NN(C(=O)c2ccco2)C2(CC2)C1		inactive: 0.19%
S=c1sc2c(Cl)ncnc2n1-c1ccccc1	active: 2.06 µM	
O=C(CSc1ccc2nnc(-c3cccc(F)c3)n2n1)N1CCCc2ccccc21		inactive: 0.481%
CC1CC1C(=O)Nc1ccc(S(=O)(=O)N2CCCCC2)cc1 (centres undefined)		inactive: 15%
c1ccc(COC2CCCN(Cc3nc(-c4cnccn4)no3)C2)nc1 (centres undefined)		inactive: -4.93%
CCOC(=O)c1c(NC(=O)c2ccc(S(=O)(=O)N3CCOCC3)cc2)sc2c1CCN(C)C2	inconclusive [activator, partial curve, poor fit]	
O=C(Cc1ccc(Cl)cc1)NCCS(=O)(=O)N1CCN(c2ccccc2F)CC1	active: 18.4 µM	
CCN(CC)Cc1c(O)ccc2c(=O)c(-c3ccc4c(c3)OCCO4)coc12	inconclusive [activator, single point]	
CC1(C)Cc2c(sc3nc(SCC(=O)O)[nH]c(=O)c23)CO1		inactive: 1.74%
Cc1ccc2c(c1)P(=O)(O)c1cc(C)ccc1O2		inactive: -4.8%
O=C(Nc1ccccn1)Nc1cccs1	inconclusive [activator, single point]	
COc1ccc(/C=N/NC(=O)c2[nH]c3ccc(Cl)cc3c2-c2ccccc2)c(C(=O)O)c1OC	inconclusive [activator, single point]	
O=C(NCC1CCCN(Cc2cccc(F)c2)C1)c1cccc2ccccc12 (centres undefined)		inactive: -1.57%
O=C(NCc1ccccc1)c1cc[n+]([O-])cc1		inactive: -1.56%

SMILES	Potency	activity, positive = re-replication
CC(C)NC(=O)[C@]1(C)CCC[C@@]2(C)C3CC[C@@]4(C)C[C@]3(CCC21)CC4=O (some centres undefined)	inconclusive [activator, single point]	
CC(=O)Nc1ccc(CCCCc2ccc(NC(C)=O)cc2)cc1		inactive: 14.5%
COC(=O)C1=C(C)NC(=O)NC1c1ccc(N2CCC(c3ccccc3)=N2)cc1 (centres undefined)	active: 5.17 µM	
Cc1ccc(NC(=O)CCCCCN2C(=O)[C@@H]3Cc4ccccc4CN3C2=O)c(C)c1		inactive: 8.79%
CN(CC(=O)NCC1CCCO1)S(=O)(=O)c1ccc(Br)cc1 (centres undefined)		inactive: -2.31%
Cc1ccc2nc(-c3ccc(NC(=O)C(C)Sc4nncs4)cc3)sc2c1 (centres undefined)	inconclusive [activator, full curve]	
C(#CCN1CCCC1)CC(c1ccccc1)c1ccccc1	active: 13 µM	
CC(=O)Nc1ccc(C2=NN(c3ccccc3)C(c3cccs3)C2)cc1 (centres undefined)	inconclusive [activator, full curve, poor fit]	
CCCC(=O)c1ccc(N2CCN(C(=O)c3ccccc3Br)CC2)c(F)c1	inconclusive [activator, single point]	
C[C@@H]1CN(S(=O)C(C)(C)C)[C@@H](CCO)/C1=C\CCO (some centres undefined)	inconclusive [activator, partial curve, poor fit]	
COc1ccc(N(C(=O)c2ccncc2)S(=O)(=O)c2ccccc2)cc1		inactive: 2.75%
NC(=S)C1COc2ccccc2O1 (centres undefined)	inconclusive [activator, single point]	
CCOc1ccc(OCC(=O)Nc2ccc(S(N)(=O)=O)cc2)cc1	inconclusive [activator, partial curve, poor fit]	
CC(=O)NC1(C(Cl)(Cl)Cl)Oc2ccccc2O1	inconclusive [activator, partial curve, poor fit]	
N=c1sccn1CC(=O)Nc1cc(Cl)ccc1Oc1ccccc1	inconclusive [activator, single point]	
CC(OC(=O)CN1C(=O)c2ccccc2C1=O)C(=O)NC1CCCCC1C (centres undefined)	inconclusive [activator, partial curve, poor fit]	
CSc1nsc(SC)c1NC(=O)Nc1ccccn1		inactive: -2.01%
COC(=O)c1ccc(COc2ccccc2/C=N/NS(=O)(=O)c2ccc(C)cc2)cc1		inactive: 2.62%
Cc1ccc(C(=O)/C=C\NCc2ccccc2)cc1	inconclusive [activator, single point]	
Cc1ccc(N2C(=O)CC(N(CCc3ccccc3)C(=S)Nc3ccc(N(C)C)cc3)C2=O)cc1 (centres undefined)	inconclusive [activator, partial curve, poor fit]	
CC1(C)CN(c2ccccc2)N(C(=O)c2ccc(F)cc2)C1=O	inconclusive [activator, partial curve, poor fit]	
CN(C)CCNC(=S)Nc1cccc(Cl)c1		inactive: -1.76%
O=C(CCl)N(Cc1ccccc1)c1ccccc1	active: 16.4 µM	
CCOC(=O)C1=C(CSc2nc(-c3ccccc3)ccc2C#N)OC(N)=C(C#N)C1c1ccc(OC)cc1 (centres undefined)	active: 16.4 µM	
